The supplement of paper PMC10126150
Values marked as one replicate rest on one cluster of the flow cell; about a third of the high ones do not repeat.

System: ATP
Assay: switch fluorescence ratio, 500 uM ATP over buffer (Cy3 cluster intensity, sum of 5 cycles each) (fold (ratio)); higher = stronger signal-on switching upon ATP binding; sequences stand for … in TCGTCGGCAGCGTCAGATGTGTATAAGAGACAGTTTTTTTTTTTTTTTTTTTTTTTTT…TC
Settings: aptamer strand: ATP DNA aptamer (quencher-CACCTGGGGGAGTATTGCGGAGGAAGG + anchor), 100 nM annealed; ATP concentration: 500 uM; one replicate
Procedure, shortened: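 Clusters with intensities outside 100-1000 RFU were excluded. The remaining Cy3-labelled switching-strand clusters on a modified Illumina MiSeq flow-cell had been annealed to 100 nM quencher-labelled ATP aptamer and imaged in selection buffer, then after 15 min with 500 uM ATP at 22 °C, for five cycles separated by NaOH stripping and re-annealing. The fluorescence ratio, averaged per switch-domain sequence, is each cluster's summed target-cycle Cy3 intensity over its summed buffer-cycle Cy3 intensity.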
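Note: ATP exposure 15 min at 22 °C before imaging.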

CGGCAGGTTG
switch fluorescence ratio: 1.01

GTCACGGGGC
switch fluorescence ratio: 0.999

TATAGGTTAG
switch fluorescence ratio: 0.958

CTCTGATCAG
switch fluorescence ratio: 0.975

GAGTGCTTAC
switch fluorescence ratio: 1.07

AGTTTGTCAA
switch fluorescence ratio: 1.04

TTGATTCTAA
switch fluorescence ratio: 0.94

AACATGCACG
switch fluorescence ratio: 1.09

TCCTGGTATT
switch fluorescence ratio: 1.01

CGAAGAATTT
switch fluorescence ratio: 0.99

GGTCGCGATC
switch fluorescence ratio: 1.03

CCGTAATGGT
switch fluorescence ratio: 4.61

GAGTCGTGGG
switch fluorescence ratio: 1.01

AATTCTAGAC
switch fluorescence ratio: 1.02

CTTCCGGCC
switch fluorescence ratio: 2.09

TTCAGATCGT
switch fluorescence ratio: 0.972

ACTCAGACGC
switch fluorescence ratio: 1.37

TTAATCAGCT
switch fluorescence ratio: 1.03

GGCCGATCAA
switch fluorescence ratio: 1.02

AGGACATCCG
switch fluorescence ratio: 0.965

GTCCTGGAGC
switch fluorescence ratio: 1.05

TACGTGTGAA
switch fluorescence ratio: 1.05

TCATTCCGTT
switch fluorescence ratio: 1.08

GCCTTCATT
switch fluorescence ratio: 0.991

AACTTTATT
switch fluorescence ratio: 1.02

TAATTTTTGA
switch fluorescence ratio: 0.994

GTGGTAAGTA
switch fluorescence ratio: 0.938

GCCCCGATGT
switch fluorescence ratio: 1.06

ATGTGTTCGT
switch fluorescence ratio: 1.02

CTTAGTCGCA
switch fluorescence ratio: 1.01

AGGGCGAGGG
switch fluorescence ratio: 1.02

GTCGACTTTT
switch fluorescence ratio: 0.974

CACTTTCTGG
switch fluorescence ratio: 0.982

TATGTGGATG
switch fluorescence ratio: 1.03

AGGGATCATA
switch fluorescence ratio: 0.988

AGAGGCTCGG
switch fluorescence ratio: 1.01

CCTTTTCCTG
switch fluorescence ratio: 1.02

TAGCTAAAGG
switch fluorescence ratio: 1.03

GCATTAAATT
switch fluorescence ratio: 0.961

AACATCGTGG
switch fluorescence ratio: 0.988

TGCTACCCCC
switch fluorescence ratio: 1.81

AGGGAACTGA
switch fluorescence ratio: 0.968

CACGATTGCG
switch fluorescence ratio: 1.01

TTTATTAGTG
switch fluorescence ratio: 0.985

CAAGGACCG
switch fluorescence ratio: 0.978

GGTCGTACTG
switch fluorescence ratio: 0.949

TCGGTCCCCC
switch fluorescence ratio: 1.03

AGTTGAACTT
switch fluorescence ratio: 0.994

GTAGCTTGAC
switch fluorescence ratio: 1.85

ACGAGCGAC
switch fluorescence ratio: 1.83

GTCCATTTAG
switch fluorescence ratio: 0.998

AGTGATGAGT
switch fluorescence ratio: 0.963

TAGTCTGGGT
switch fluorescence ratio: 0.969

CGCGATAGGT
switch fluorescence ratio: 1.28

TGTATCAAGG
switch fluorescence ratio: 0.978

CTGCTCCCTA
switch fluorescence ratio: 1.02

CCTTAGGGAG
switch fluorescence ratio: 0.995

TTTCTGACCC
switch fluorescence ratio: 1.05

GGGGCTTTGC
switch fluorescence ratio: 0.937

CACTTAAATC
switch fluorescence ratio: 1.28

CAGGGTATAT
switch fluorescence ratio: 0.988

AACCTCTCTA
switch fluorescence ratio: 1.04

CATCGGTTTT
switch fluorescence ratio: 1.08

AATTAGTGCG
switch fluorescence ratio: 0.981

GGACGGAGG
switch fluorescence ratio: 0.958

TCGATCATTG
switch fluorescence ratio: 1.01

ATCGGTAGAT
switch fluorescence ratio: 0.91

CCTAAATGAA
switch fluorescence ratio: 1.02

ACCCAACCAG
switch fluorescence ratio: 1.15

TGAGTCGCTG
switch fluorescence ratio: 1.03

GCGTAGGCTG
switch fluorescence ratio: 0.95

GCCGTTTTT
switch fluorescence ratio: 1

ATAGACGCCG
switch fluorescence ratio: 1.09

GTGTATCTAT
switch fluorescence ratio: 0.892

CGTTCCCAAT
switch fluorescence ratio: 1.6

GGCTGGAGTG
switch fluorescence ratio: 0.973

GTTGTGAGAT
switch fluorescence ratio: 0.972

ACGACTACTT
switch fluorescence ratio: 1.2

GAGCGCATAG
switch fluorescence ratio: 1.7

CAATAGTGCC
switch fluorescence ratio: 0.965

GATCGGGAAG
switch fluorescence ratio: 1.01

GGAACGGGAC
switch fluorescence ratio: 1.14

AAACATTCTG
switch fluorescence ratio: 1.04

GTGGTTCTCT
switch fluorescence ratio: 1.02

TTGAAGCCGT
switch fluorescence ratio: 0.968

CTGGGTGAAT
switch fluorescence ratio: 0.98

TAGTCACACT
switch fluorescence ratio: 1.03

GTAGAGGTTT
switch fluorescence ratio: 0.971

GAAGGTACAA
switch fluorescence ratio: 1.05

TAGTTAAGCT
switch fluorescence ratio: 0.958

TCATGCAGTC
switch fluorescence ratio: 0.981

CACCCTGCAT
switch fluorescence ratio: 1.23

AGCTTTGTTC
switch fluorescence ratio: 0.999

GTGATCACAG
switch fluorescence ratio: 0.971

CCTGCCTAGA
switch fluorescence ratio: 1.11

GCCCCTTTCA
switch fluorescence ratio: 1.01

CTATGGCGCC
switch fluorescence ratio: 1.01

ATTCATCCAC
switch fluorescence ratio: 1.19

AAGATTTCTT
switch fluorescence ratio: 0.991

TGGACACATA
switch fluorescence ratio: 1.2

CCAGTTCTGA
switch fluorescence ratio: 0.983

GGGTAGAATA
switch fluorescence ratio: 1.03

AATGTGTAGA
switch fluorescence ratio: 1.07

ACTGGGCAGT
switch fluorescence ratio: 1.04

GCCCCTTTTC
switch fluorescence ratio: 1.03

GAATACGCGT
switch fluorescence ratio: 0.984

ATGTGATGAC
switch fluorescence ratio: 1.05

AGCGCACGC
switch fluorescence ratio: 1.03

TGAGTCCGGG
switch fluorescence ratio: 0.999

GATTAGATTT
switch fluorescence ratio: 0.98

CCAGGTCCGG
switch fluorescence ratio: 0.99

CTCACCATTT
switch fluorescence ratio: 1

GAATTGTGCG
switch fluorescence ratio: 0.954

TTTGGGTG
switch fluorescence ratio: 1.01

AGTATTCCCG
switch fluorescence ratio: 0.923

GCTGTTGCCG
switch fluorescence ratio: 0.983

AGAATTATTT
switch fluorescence ratio: 0.967

AGAGCCATAT
switch fluorescence ratio: 1.04

GCTAATATAG
switch fluorescence ratio: 1.01

TGATTACAGA
switch fluorescence ratio: 0.983

CTTAATCCCG
switch fluorescence ratio: 1.01

GTCCCAACTT
switch fluorescence ratio: 1.06

TATTGGCTGG
switch fluorescence ratio: 1.05

GGGTTCGAA
switch fluorescence ratio: 1.04

AACGCACGTA
switch fluorescence ratio: 1.2

ATGGTCTGAC
switch fluorescence ratio: 1.09

ACAAATTCAA
switch fluorescence ratio: 0.985

TAAGAGCGCC
switch fluorescence ratio: 1.09

CCAAAGAAAG
switch fluorescence ratio: 1

GGGTTCGGGT
switch fluorescence ratio: 0.966

CGATTGCACT
switch fluorescence ratio: 1.09

GGAGAGGCAT
switch fluorescence ratio: 1.01

CGCGGGATGA
switch fluorescence ratio: 1.02

AGACAGGCAG
switch fluorescence ratio: 1.04

GCCTAGTTCC
switch fluorescence ratio: 1.08

CACCGGTCGC
switch fluorescence ratio: 0.998

GTCTGGAGAC
switch fluorescence ratio: 0.961

CAGATCCGGT
switch fluorescence ratio: 1.03

CGTATAATTG
switch fluorescence ratio: 0.994

GCGGGTATAG
switch fluorescence ratio: 1.05

GGTACGGTTC
switch fluorescence ratio: 0.971

TGGCAGAGTG
switch fluorescence ratio: 1

TAACCGCAGG
switch fluorescence ratio: 0.998

TTGGAGGCTG
switch fluorescence ratio: 0.991

CCTCTGACAG
switch fluorescence ratio: 3.68

CTGAATGAGC
switch fluorescence ratio: 1.06

TTATTGATGT
switch fluorescence ratio: 1

GCAAGACTTT
switch fluorescence ratio: 1.59

TGTCAGAGGA
switch fluorescence ratio: 1.05

GTAAGGGTCC
switch fluorescence ratio: 0.919

GATCTTGCGC
switch fluorescence ratio: 0.955

ACCTGATTTT
switch fluorescence ratio: 0.997

ACGGGCATCC
switch fluorescence ratio: 0.983

TGGCGATTCA
switch fluorescence ratio: 0.957

TTCATAGGGA
switch fluorescence ratio: 0.944

TGCTCTTATA
switch fluorescence ratio: 0.988

CAATCTCGTG
switch fluorescence ratio: 1.04
